According to PubChem BioAssay AID1460 (National Center for Advancing Translational Sciences (NCATS), 2008):
The campaign covered roughly 270,000 compounds. About 5,800 (2.1%) were called active. Inconclusive means that the source gave no clear call. Such entries were picked first, then a sample of the others. Calls come from the whole dose curve; as a rule, active = well fitted inhibition curve with a large enough effect; inconclusive = small, poorly fitted or top-dose-only effect; inactive = flat fitted curve, though single readings scatter. A potency beside an inconclusive call is a rough fit, not a confirmed value.

Target: Microtubule-associated protein tau (Homo sapiens) (UniProt P10636)
Chain of UniProt P10636 (P10636 whole entry, looked up): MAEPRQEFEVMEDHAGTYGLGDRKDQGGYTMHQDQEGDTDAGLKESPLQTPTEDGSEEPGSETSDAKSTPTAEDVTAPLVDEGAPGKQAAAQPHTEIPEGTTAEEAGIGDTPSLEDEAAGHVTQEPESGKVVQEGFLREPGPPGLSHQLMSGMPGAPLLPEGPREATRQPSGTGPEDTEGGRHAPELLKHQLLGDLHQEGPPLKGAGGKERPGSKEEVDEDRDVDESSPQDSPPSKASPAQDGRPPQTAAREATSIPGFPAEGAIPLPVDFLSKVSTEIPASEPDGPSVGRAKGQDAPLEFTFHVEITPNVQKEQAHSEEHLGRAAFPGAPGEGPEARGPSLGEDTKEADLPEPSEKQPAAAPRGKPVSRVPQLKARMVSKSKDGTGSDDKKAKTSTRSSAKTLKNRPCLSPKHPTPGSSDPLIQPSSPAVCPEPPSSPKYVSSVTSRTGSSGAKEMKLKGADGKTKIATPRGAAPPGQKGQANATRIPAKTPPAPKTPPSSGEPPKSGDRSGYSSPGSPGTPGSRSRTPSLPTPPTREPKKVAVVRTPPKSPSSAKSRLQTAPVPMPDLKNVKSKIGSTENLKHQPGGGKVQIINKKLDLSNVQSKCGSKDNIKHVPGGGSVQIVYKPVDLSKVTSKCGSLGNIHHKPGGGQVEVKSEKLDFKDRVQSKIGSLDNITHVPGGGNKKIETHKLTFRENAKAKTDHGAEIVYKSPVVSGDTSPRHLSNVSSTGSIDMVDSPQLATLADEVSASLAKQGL
Test: qHTS for Inhibitors of Tau Fibril Formation, Thioflavin T Binding; note: nearly all actives have a fitted effect of over 55% in size
Conditions: recombinant tau K18 P301L (four-repeat tau fragment), heparin-induced fibrillization, ThT fluorescence; series mostly up to 57.4 µM; activity, negative = inhibition: at the top concentration
In short: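 In this qHTS, human K18 P301L tau is incubated with compound and heparin for 6 hr at 37 C, and Thioflavin T fluorescence then reports fibril load.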
% is set by controls: 0 for no effect and ±100 for the full control effect; potency is the fitted concentration of half-maximal effect; tags give direction and shape of the fitted curve.

| SMILES | Potency | activity, negative = inhibition |
| --- | --- | --- |
| COc1cc(Cl)c(C)cc1Nc1ncnc2c1nc1n2CCCC1 | inconclusive: 14.1 µM [inhibitor, partial curve, poor fit] | – |
| CN1C2C=C3C(C#N)=C(N)C(C#N)(C#N)[C@@H](c4ccsc4)[C@@H]3C1CC2 (some centres not stated) | inconclusive: 15.8 µM [inhibitor, partial curve] | – |
| CSc1ccc(C(=S)N2CCN(C(c3ccccc3)c3ccccc3)CC2)cc1 | – | inactive: -3.37% |
| COc1ccc(-c2noc(-c3ccoc3C)n2)cc1 | inconclusive: 14.1 µM [inhibitor, partial curve] | – |
| O=C(OCC(=O)c1ccc[nH]1)c1ccccc1 | – | inactive: -8.06% |
| CCOC(=O)/C(=N\Nc1ccccc1[N+](=O)[O-])c1csc(Nc2ccccc2)n1 | active: 5.01 µM | – |
| Cc1ccc2c(c1)N=C(c1ccccc1)CC(C(Cl)Cl)=N2 | active: 15.8 µM | – |
| CCCC(=O)NC(NC(=S)Nc1ccc(S(N)(=O)=O)cc1)C(Cl)(Cl)Cl (configuration not stated) | – | inactive: 0.611% |
| COc1cc(NS(=O)(=O)c2ccc3[nH]c4c(c3c2)CCCCCC4)cc(OC)c1 | – | inactive: -6.54% |
| CC1=C(C#N)C(c2cn(-c3ccccc3)nc2-c2cccs2)C(C#N)=C(C)N1 | – | inactive: -8.12% |
| COc1ccc([C@H]2Oc3cc(O)cc(O)c3C(=O)C2[C@@H]2C(=O)c3c(O)cc(O)cc3O[C@@H]2c2ccc(OC)cc2)cc1 (some centres not stated) | inconclusive: 11.2 µM [inhibitor, single point] | – |
| O=c1[nH]c(-c2ccncc2)nc2ccccc12 | inconclusive: 31.6 µM [inhibitor, single point] | – |
| Cc1cc(NC(=O)c2coc(=O)c(Br)c2)ccc1C(C)C | inconclusive: 12.6 µM [inhibitor, partial curve] | – |
| Cc1nn2c(c1-c1ccc(Cl)cc1)N=C(c1ccco1)CC2c1ccccc1 (configuration not stated) | inconclusive: 14.1 µM [inhibitor, partial curve] | – |
| CC(C)C(=O)Nc1nc2cc3c(cc2s1)OCO3 | – | inactive: -13.7% |
| O=C1NC(c2cccc(Br)c2)=N/C1=C\c1ccco1 | – | inactive: 4.94% |
| OCC1(CCOc2ccccc2)CCN(C2Cc3ccccc3C2)CC1 | – | inactive: -12.5% |
| Cc1cc(Br)ccc1NC(=S)Nc1cccc([N+](=O)[O-])c1 | inconclusive: 20 µM [inhibitor, single point] | – |
| Cc1ccc(OCC(=O)NC2CC(C)(C)NC(C)(C)C2)cc1C | – | inactive: 1.52% |
| Cn1c(C(=O)Nc2ccc3c(c2)OCCO3)cc2sccc21 | inconclusive: 17.8 µM [inhibitor, partial curve] | – |
| O=C1C2C(C(=O)N1/N=C/c1cc([N+](=O)[O-])c(O)cc1O)C1C=CC2C12CC2 (configuration not stated) | inconclusive: 12.6 µM [inhibitor, partial curve] | – |
| O=C(N/N=C/c1ccc([N+](=O)[O-])cc1)c1ccc2nc[nH]c2c1 | inconclusive: 3.98 µM [inhibitor, full curve] | – |
| CC(=O)N1CCCc2cc(S(=O)(=O)N3CCC(C(=O)NCc4cccc(C)c4)CC3)ccc21 | – | inactive: -3.25% |
| O=c1[nH]c2cc3c(cc2cc1CN(Cc1cccs1)Cc1nnnn1Cc1ccco1)OCCO3 | inconclusive: 22.4 µM [inhibitor, partial curve] | – |

| SMILES | Potency | activity, negative = inhibition |
| --- | --- | --- |
| Cc1c(Cl)cccc1N/C(=N/S(=O)(=O)c1cccs1)c1ccccc1 | – | inactive: -3.7% |
| CCCCN(CC)CCNC(=O)Cn1cc2c(n1)-c1c(oc(C(=O)N3CCCC3)c1C)CC2 | – | inactive: -1.52% |
| O=C1C(O)CC2c3ccccc3CC3(CCCC3)N12 (configuration not stated) | inconclusive: 14.1 µM [inhibitor, partial curve, poor fit] | – |
| CCCCn1c2ccc(F)cc2c2nnc(NN)nc21 | inconclusive: 22.4 µM [inhibitor, partial curve] | – |
| CCC1CN(C(=O)C2CCN(S(=O)(=O)c3c(C)noc3/C=C/c3ccccc3F)CC2)c2cc(Cl)ccc2O1 (configuration not stated) | – | inactive: 10.9% |
| C=CCn1c(C(CCCC)CC(O)COCC(C)C)n[nH]c1=S (configuration not stated) | – | inactive: -1.77% |
| OC(COC(c1ccc(Cl)cc1)c1ccc(Cl)cc1)CN1CCN(c2ccccn2)CC1 (configuration not stated) | inconclusive: 20 µM [inhibitor, single point] | – |
| Cc1ccc(Cl)cc1NC(=O)c1ccccn1 | – | inactive: -6.15% |
| CCOc1ccc(NC(=S)Nc2ccc(Br)cc2Cl)cc1 | inconclusive: 3.55 µM [inhibitor, full curve] | – |
| Cc1cccc(OCCCC(=O)Nc2ccc(S(=O)(=O)Nc3onc(C)c3C)cc2)c1C | inconclusive: 10 µM [inhibitor, partial curve] | – |
| COC(=O)C1=C2SC(C)C(=O)N2C(N)=C(C#N)C1c1ccc(OC)c(OC)c1 (configuration not stated) | inconclusive: 3.16 µM [inhibitor, partial curve] | – |
| CN(c1ccccc1)S(=O)(=O)c1ccc(C(=O)Nc2nnc(-c3ccc(F)cc3)o2)cc1 | – | inactive: -4.79% |
| COc1ccc(CC(=O)NNC(=S)Nc2ccccc2)cc1Cl | – | inactive: -4.99% |
| CCOC(=O)Cn1nc(-c2ccccc2)c2cnc3ccc(OCC)cc3c21 | inconclusive: 3.55 µM [inhibitor, full curve] | – |
| CC1=C(C(=O)Nc2ccccn2)C(c2ccccc2Cl)NC(=S)N1 (configuration not stated) | – | inactive: -8.28% |
| CCCN(CCC)CCNC(=O)CN1C(=O)COc2ccc(S(=O)(=O)N3CCC(C)CC3)cc21 | – | inactive: -3.32% |
| COc1cc(C)c(NC(c2ccccc2)c2ccccc2)cc1OC | inconclusive: 20 µM [inhibitor, single point] | – |
| CCOC(=O)c1cccc(NC(=O)CCc2c(C)nn(-c3ccc(N4CCCC4)nn3)c2C)c1 | inconclusive: 15.8 µM [inhibitor, partial curve] | – |
| CC(=O)Oc1cc2c(cc1Cl)C1(CC(c3ccccc3Cl)O2)CC(C)(C)NC(=S)N1 (configuration not stated) | inconclusive: 5.01 µM [inhibitor, partial curve] | – |
| COc1ccc(C(=O)Nc2cc(C)on2)cc1[N+](=O)[O-] | – | inactive: -10.8% |
| COC(=O)C1(Cc2ccccc2)C=C2C(=C(C)C(=O)C2C)CN1 (configuration not stated) | inconclusive: 8.91 µM [inhibitor, partial curve] | – |
| CCOc1ccc(/C=C/c2nc(C#N)c(N3CCCCC3)o2)cc1 | inconclusive: 7.94 µM [inhibitor, partial curve] | – |
| Cc1ccc(S(=O)(=O)N(C)C)cc1NC(=O)CCc1c[nH]c2ccccc12 | – | inactive: -3.26% |
